The campaign covered roughly 310,000 compounds. About 14,000 (4.5%) showed an effect of 50% or more. Effects have a minus sign here. Some of the results follow.
The compounds below were run against human ether-à-go-go-related gene (hERG) potassium channel (human, UniProt Q12809) (assay: primary screen, population patch clamp on CHO cells stably expressing hERG).
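Further: peak tail current of the secondary pulse compared with the same well before compound.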

Sequence of human ether-à-go-go-related gene (hERG) potassium channel (Q12809 whole entry, looked up): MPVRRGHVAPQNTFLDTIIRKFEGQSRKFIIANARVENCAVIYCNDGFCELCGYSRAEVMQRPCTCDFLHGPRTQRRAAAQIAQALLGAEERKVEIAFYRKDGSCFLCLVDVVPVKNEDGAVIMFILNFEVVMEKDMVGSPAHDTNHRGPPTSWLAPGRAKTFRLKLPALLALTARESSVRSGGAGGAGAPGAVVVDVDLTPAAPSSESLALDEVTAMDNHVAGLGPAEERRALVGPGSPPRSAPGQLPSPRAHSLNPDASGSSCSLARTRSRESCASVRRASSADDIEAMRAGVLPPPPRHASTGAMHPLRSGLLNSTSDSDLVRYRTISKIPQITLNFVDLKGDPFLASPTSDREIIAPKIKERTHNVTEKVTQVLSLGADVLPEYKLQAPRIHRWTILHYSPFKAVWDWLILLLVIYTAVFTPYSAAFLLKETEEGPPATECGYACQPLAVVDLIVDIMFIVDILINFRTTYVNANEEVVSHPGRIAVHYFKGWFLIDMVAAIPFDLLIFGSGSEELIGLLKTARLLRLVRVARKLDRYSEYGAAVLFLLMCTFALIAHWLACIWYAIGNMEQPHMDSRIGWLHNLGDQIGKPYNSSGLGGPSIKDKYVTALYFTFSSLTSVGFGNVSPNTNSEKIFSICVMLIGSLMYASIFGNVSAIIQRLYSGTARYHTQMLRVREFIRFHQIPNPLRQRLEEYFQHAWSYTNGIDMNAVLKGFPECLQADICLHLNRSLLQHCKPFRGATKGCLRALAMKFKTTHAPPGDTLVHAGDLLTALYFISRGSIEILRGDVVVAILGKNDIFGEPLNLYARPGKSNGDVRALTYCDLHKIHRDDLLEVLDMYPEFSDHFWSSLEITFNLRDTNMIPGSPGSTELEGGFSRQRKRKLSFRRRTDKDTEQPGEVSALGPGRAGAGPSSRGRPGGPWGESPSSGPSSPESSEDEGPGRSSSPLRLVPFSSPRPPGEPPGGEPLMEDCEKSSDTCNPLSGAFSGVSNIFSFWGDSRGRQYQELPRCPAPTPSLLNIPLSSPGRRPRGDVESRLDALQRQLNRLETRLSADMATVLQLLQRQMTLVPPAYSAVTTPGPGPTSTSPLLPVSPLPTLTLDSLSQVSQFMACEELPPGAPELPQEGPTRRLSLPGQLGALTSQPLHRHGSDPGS

In order of falling “hERG current change (%, negative = inhibition) at 10uM” value:
1. COCCn1cnc2c1c(=O)[nH]c(=O)n2Cc1ccccc1  25.6%
2. COc1ccc(N(CC(=O)N/N=C(\C)c2ccc(C)cc2)S(=O)(=O)c2ccccc2)cc1  23.7%
3. CC(C)OC(=O)CC(=O)CSc1nc(-c2ccc(F)cc2)cc(-c2ccccc2)c1C#N  23%
4. Cc1cc(C)cc(NC(=O)c2sc3nc(C)cc(C)c3c2N)c1  21.6%
5. CCn1cnc2c1c(=O)n(CC(=O)NN)c(=O)n2Cc1ccccc1  18.7%
6. CC(C)CC(=O)NCCCN1CCN(CCCNC(=O)CC(C)C)CC1  17.6%
7. c1ccc2nc3c(nc2c1)CCCC3  17.2%
8. CCCc1nc2c([nH]1)c(=O)n(C)c(=O)n2C  15.8%
9. CC(=O)c1ccc(Nc2nc3ccccc3nc2NS(=O)(=O)c2cccs2)cc1  14.9%
10. CN(C)CCNC(=O)c1c(O)c2c([nH]c1=O)CCCC2  12.7%
11. CC(=O)c1c(O)c2ccccc2n(C(C)C)c1=O  11.7%
12. COC(=O)c1sc(-c2ccccc2)cc1NC(=O)C1CC1  11.3%
13. CC1(C)CNc2cc(N)ccc2S1  11.3%
14. O=C(NCCCN=C1NS(=O)(=O)c2ccccc21)c1ccc(F)cc1  11.1%
15. Cc1nc2sc(C(c3cccc(F)c3)N3CCOCC3)c(O)n2n1 (centres unmarked)  9.86%
16. O=C(CSc1ccc2c(c1)OCCO2)Nc1cccnc1Cl  9.12%
17. O=C(NC(=S)Nc1ccc(N2CCOCC2)cc1)c1cccc(Cl)c1Cl  7.84%
18. Cc1cc(C(=O)NNc2ccc(C)c(C)c2)no1  7.51%
19. O=C(CCCN1C(=O)/C(=C/c2ccccc2Cl)SC1=S)NNC(=O)c1ccc(Cl)cc1  6.89%
20. CCC(C(=O)OCC(=O)Nc1cc(OC)ccc1OC)c1ccccc1 (centres unmarked)  5.95%
21. O=C(OCc1nc2scc(-c3ccccc3)c2c(=O)[nH]1)c1cc(Cl)ccc1[N+](=O)[O-]  5.84%
22. C=CCn1c(NCCO)nc2sc3c(c2c1=O)CCC3  4.35%
23. CCOC(=O)C1=C(C)OC(N)=C(C#N)C1c1cc(SCC)oc1C (centres unmarked)  3.49%
24. CC(=O)N1c2ccccc2C2(C)C(C1(C)C)C2(Cl)Cl (centres unmarked)  2.78%
25. CC(C)(C)c1csc(N(CCC#N)CCC#N)n1  2.31%
26. COCCCn1ccc(O)c(Cc2ccc(F)cc2)c1=O  1.69%
27. CC1CN(Cc2nc3c(c(=O)[nH]c(=O)n3C)n2CCN2CCOCC2)CC(C)O1 (centres unmarked)  1.59%
28. O=C(Cn1ncc2c3ccccc3n(Cc3cccc(Cl)c3)c2c1=O)NCC1CCCO1 (centres unmarked)  0.334%
29. COc1ccc(C(C(=O)NC2CCCCC2)N(C(=O)CCl)c2ccc(OC)cc2)cc1 (centres unmarked)  -0.0951%
30. CCOc1ccc(NC(=O)C2CCCN(S(=O)(=O)c3cnc[nH]3)C2)cc1 (centres unmarked)  -1.14%
31. Cc1cc(OC(C)C(=O)N2CCN(c3ccc(F)cc3)CC2)c2c(C)cc(=O)oc2c1 (centres unmarked)  -1.27%
32. Cc1ccc(NC(=S)N2CCN(CCN3C(=O)c4cccc5cccc(c45)C3=O)CC2)cc1  -1.29%
33. Cc1ccc2nc(-c3ccc(NC(=O)COC(=O)c4ccc([N+](=O)[O-])o4)cc3)sc2c1  -1.6%
34. CCC1(c2ccccc2)NC(=O)N(CC(=O)Nc2ccc(S(=O)(=O)Nc3ncccn3)cc2)C1=O (centres unmarked)  -2.42%
35. COCC(=O)OCn1nnc2ccccc2c1=O  -3.35%
36. CC(C)(C)OC(=O)N1CCC(Cc2cc(-c3ccc(Cl)cc3)no2)(C(=O)O)CC1  -3.82%
37. CN(CC(=O)Nc1c(Cl)cccc1Cl)C(=O)c1cc2ccccc2cc1O  -4.77%
38. CC1CCCCN1C(=O)CSc1nnc(-c2c[nH]c3ccccc23)o1 (centres unmarked)  -5.43%
39. CC1CN(C(=O)N2c3ccccc3Sc3ccccc32)C(C)CC1=O (centres unmarked)  -5.88%
40. CC(=O)Nc1ccc(C(c2c(O)c3ccccc3oc2=O)c2c(C)n(C)n(-c3ccccc3)c2=O)cc1 (centres unmarked)  -6.59%
41. O=C(Nn1c(SCc2ccccc2F)nc2ccsc2c1=O)c1ccccc1  -7.82%
42. Cc1c(NC(=O)CN2C(=O)NC(C)(c3ccc(Cl)cc3)C2=O)c(=O)n(-c2ccccc2)n1C (centres unmarked)  -7.84%
43. CCc1oc(C(=O)O)cc1COC  -9.57%
44. CCc1nn(-c2cc(Cl)ccc2OC)c2c1C(=O)CCC2  -10.4%
45. CC(=O)Nc1ccc(NC(=O)c2c(C)c(-c3ccccc3)nc3ccccc23)cc1  -11.2%
46. CCOc1ccc(N(CC)S(=O)(=O)c2ccc3c(c2)n(C)c(=O)c(=O)n3C)cc1  -14.1%
47. CCc1ccc(-c2cc(C)no2)cc1S(=O)(=O)NC(C)Cc1ccco1 (centres unmarked)  -19.4%
48. CCc1nccn1S(=O)(=O)c1ccc(Br)cc1Br  -23.4%
49. Cc1cccc(NC(=O)NCCN2CCCCC2)c1  -25%
50. CC1(S(=O)(=O)[O-])CC(=O)c2ccccc2C1=O.O.[Na+] (centres unmarked)  -26.7%
51. COc1ccc(/C=N/NC(=O)c2cc(-c3cccn3C)n[nH]2)cc1OC  -27.5%
52. O=C(Cc1ccc(Br)cc1)N1CCN(c2ccccc2)CC1  -35.7%
53. O=C1N(C2CCCC2)C[C@@H]2C[C@@H](c3cn[nH]c3-c3ccc(Cl)cc3)N3CCC[C@@]123  -37.8%
54. CCC(C)(C)n1nnnc1C(c1cccnc1)N1CCC(Cc2ccccc2)CC1 (centres unmarked)  -46.2%
55. CN(C)S(=O)(=O)c1cccc(NC(=O)COC(=O)C2CCN(C(=O)c3ccc(F)cc3)CC2)c1  -50.8%
56. CN(C)CCNC(=O)c1sc2nc(-c3ccccc3)cc(C(F)(F)F)c2c1N  -57.8%

Source: PMC4336329 (PLoS ONE, 2015)
